Whole data set: some 110,000 compounds, median “z-score” near -0.1, cut for the highest 2% near 2. The list shows a part of the results. Active and inactive are the calls of the source.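 Rule for the calls: active = z-score in the third read window above 3 or below -3; inactive = the rest.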
Biological target: Metabotropic glutamate receptor 8 (Rattus norvegicus) (UniProt P70579)
Assay: rat mGluR8 modulators via GIRK flux, primary screen, cell-based, thallium flux, HTS (AID 488969)
Settings: HEK293 rat mGluR8, GIRK (G protein-gated inwardly rectifying potassium channel) thallium flux, FluoZin2; at 10 µM; stronger effect = higher value; submaximal glutamate (EC20) added with thallium

Sequence of UniProt P70579 (P70579 whole entry, looked up): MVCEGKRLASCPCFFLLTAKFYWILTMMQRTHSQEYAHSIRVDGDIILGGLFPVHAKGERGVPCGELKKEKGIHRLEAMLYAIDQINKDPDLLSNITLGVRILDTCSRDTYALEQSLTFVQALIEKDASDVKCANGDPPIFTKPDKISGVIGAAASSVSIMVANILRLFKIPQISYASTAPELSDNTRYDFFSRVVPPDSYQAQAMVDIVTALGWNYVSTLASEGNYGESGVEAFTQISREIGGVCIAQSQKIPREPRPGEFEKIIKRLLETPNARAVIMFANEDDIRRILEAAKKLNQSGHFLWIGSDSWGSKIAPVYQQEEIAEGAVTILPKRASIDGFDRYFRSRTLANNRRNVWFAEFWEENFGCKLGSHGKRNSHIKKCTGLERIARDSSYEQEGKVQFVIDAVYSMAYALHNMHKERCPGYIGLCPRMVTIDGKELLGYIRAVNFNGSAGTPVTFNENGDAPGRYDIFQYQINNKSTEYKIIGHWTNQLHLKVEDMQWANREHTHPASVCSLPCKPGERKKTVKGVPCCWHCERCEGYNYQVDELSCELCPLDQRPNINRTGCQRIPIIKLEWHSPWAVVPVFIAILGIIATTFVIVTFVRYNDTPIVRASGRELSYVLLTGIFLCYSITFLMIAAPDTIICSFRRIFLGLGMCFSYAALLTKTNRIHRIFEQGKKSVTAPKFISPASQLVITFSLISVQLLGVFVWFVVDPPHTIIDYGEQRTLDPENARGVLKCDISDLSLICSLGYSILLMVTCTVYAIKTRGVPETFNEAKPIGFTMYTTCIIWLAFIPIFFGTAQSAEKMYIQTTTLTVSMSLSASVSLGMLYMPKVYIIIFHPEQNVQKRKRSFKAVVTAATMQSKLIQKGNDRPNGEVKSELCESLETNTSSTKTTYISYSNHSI

Compared with `CCN(CC)C(=O)Oc1ccccc1NC(C)=O`, `CCc1ccc(CCC(=O)Nc2ccccc2C(=O)O)o1` is lower in z-score: -0.282 for the first, -0.597 for the second.

Going from `CC(=O)Nc1cc(S(=O)(=O)Nc2cccc(C)c2)c(C)cc1C` to `Cc1ccc(S(=O)(=O)NCC(=O)OC(C)C(=O)Nc2ncc(Cl)cc2Cl)cc1` (stereo unspecified), the z-score falls from -0.268 to -0.407.

First: Cc1cccc(CNCc2ccccc2)c1
Second: O=C(COc1ccc2ccccc2c1)NNC(=O)Cc1ccccc1
The z-score of the first is higher: 0.308 for the first, -0.148 for the second.

First: O=C(NC(NC(=S)Nc1ccccc1O)C(Cl)(Cl)Cl)c1ccco1 (stereo unspecified)
Second: Cc1ccccc1NC(=O)/C(C#N)=C/c1ccccc1C(F)(F)F
The z-score of the first is higher: 0.576 for the first, -0.118 for the second.

First: CCCC1CC(C)(c2csc(Nc3ccc(OCC)cc3)n2)OC1=O (stereo unspecified)
Second: CCOC(=O)c1cc2c(nc1NC(=S)Nc1ccccc1)CC(C)(CC)OC2 (stereo unspecified)
The z-score of the first is lower: 0.0704 for the first, 0.172 for the second.

Going from `CC(C)NC(=O)CSc1nnc(-c2ccncc2)n1-c1ccccc1` to `Cc1ccccc1Nc1nc(CSc2nnnn2-c2ccccc2)cs1`, the z-score falls from 0.211 to -0.404.

Going from `O=C(NCc1cccnc1)c1ccc2c(=O)n(CCCN3CCCC3=O)c(=S)[nH]c2c1` to `O=C(NCc1cccnc1)c1cccc(C(F)(F)F)c1`, the z-score falls from -0.116 to -0.793.

Compared with `O=C(CC(=O)N/N=C/c1ccc(Cl)cc1Cl)NCc1ccccc1`, `Cc1ccc(CNC(=O)COC(=O)c2ccc(Cl)c(N)c2)cc1` is lower in z-score: -0.103 for the first, -0.283 for the second.

Compared with `Cc1c(/C=N/NC(=O)c2ccc3c(c2)OCO3)cnn1C`, `N#C/C(=C\C=C\c1ccccc1)c1nc(-c2ccc3c(c2)OCO3)cs1` is lower in z-score: -0.062 for the first, -1.12 for the second.

Compared with `c1ccc2c(c1)[nH]c1c(N3CCSCC3)ncnc12`, `Cc1cccc(C)c1NC(=O)N1CCN(c2nc3ccccc3s2)CC1` is higher in z-score: -0.335 for the first, 0.0476 for the second.

Going from `Cc1ccc(N=Cc2sccc2C)cc1C` to `COc1ccc(OC)c(NS(=O)(=O)c2ccc(Cl)s2)c1`, the z-score rises from 0.192 to 0.483.

First: Cc1ccc(C(=O)n2c3ccccc3c3ccccc32)cc1
Second: Cc1ccc(C(=O)NC(=S)NCC(=O)c2ccccc2)cc1
The z-score of the first is higher: 0.214 for the first, -0.021 for the second.

Compared with `COCCNC(=O)c1ccc2snnc2c1`, `CCCNC(=S)Nc1ccc(CC(=O)OC)cc1` is higher in z-score: -0.116 for the first, 0.529 for the second.

Going from `CC1CCC(C(=O)NC(C(=O)NCCCN2CCOCC2)C(C)C)CC1` (stereo unspecified) to `CN1CCN(CCCNC(=O)c2cc3c(-c4ccc(Cl)cc4)nn(C)c3s2)CC1`, the z-score falls from 0.277 to -0.206.

Going from `N#Cc1c(-c2ccco2)nc(NCC2CCCO2)[nH]c1=O` (stereo unspecified) to `CCCCN(C)c1nc(-c2ccco2)c2c(c1C#N)CC(C)(C)OC2`, the z-score rises from -0.706 to 0.00143.

Compared with `COc1cc(/C=N/O)cc(Br)c1OCc1ccc(Cl)cc1`, `Cc1cc(N2CCCCC2)n2ncc(-c3ccc(Cl)cc3)c2n1` is lower in z-score: 0.305 for the first, -0.365 for the second.

Going from `COc1ccc(-c2cc(C(F)(F)F)nc(SCC(=O)NCc3ccco3)n2)cc1OC` to `COc1cc2cc3c(N)c(C(=O)NCc4ccco4)sc3nc2cc1OC`, the z-score falls from -0.172 to -0.4.

Compared with `Cc1c(-c2ccccc2)[n+](=O)c2c(n1[O-])CCCCC2`, `O=C1CCCc2ccccc2N1Cc1ccccc1Cl` is lower in z-score: -0.0223 for the first, -0.206 for the second.

First: O=C(NCc1ccco1)c1ccccc1-c1ccc(C(F)(F)F)cc1
Second: O=[N+]([O-])c1cccc2ccc(/C=C/c3ccc(C(F)(F)F)cc3)nc12
The z-score of the first is lower: -0.173 for the first, -0.154 for the second.

Compared with `Clc1ccc(Oc2nc(N3CCOCC3)nc(N3CCOCC3)n2)cc1`, `COc1ccc(OC)c(NC(=O)C2CCN(c3nc(C)cc(C)n3)CC2)c1` is higher in z-score: -0.176 for the first, 0.896 for the second.

First: CCCN1C(=O)/C(=c2\s/c(=C3\C=Cc4ccccc4N3CC)c(=O)n2-c2ccccc2)SC1=S
Second: CCN(CC)S(=O)(=O)c1ccc(NC(=O)c2cc(-c3cccs3)nc3ccccc23)cc1
The z-score of the first is lower: -0.345 for the first, -0.245 for the second.

Going from `C=CCn1c(SCc2ccccc2)nc(O)cc1=O` to `CCc1nc2c(sc3nc4c(cc32)COC(C)(C)C4)c(=O)n1Cc1ccccc1`, the z-score falls from 2.19 to -0.115.

First: COCc1cc(C)nc(OCC(=O)N/N=C\c2cc(C)n(-c3cccc(C(F)(F)F)c3)c2C)c1C#N
Second: Cc1nc2ncnn2c(N2CCN(c3cccc(C(F)(F)F)c3)CC2)c1C
The z-score of the first is lower: -0.0391 for the first, 0.118 for the second.

First: Nc1cc(C(F)(F)F)ccc1C(=O)O
Second: CCOC(=O)CCSc1nc(C(C)(C)C)cc(C(F)(F)F)c1C#N
The z-score of the first is lower: -0.284 for the first, 0.0143 for the second.

Going from `COc1ccccc1N1CCN(Cc2ccco2)CC1` to `c1ccc(N=C(c2cccs2)N2CCOCC2)cc1`, the z-score rises from -0.814 to 0.533.

First: O=C(Cn1nc(-c2ccc(Cl)cc2)ccc1=O)NCC1CCCO1 (stereo unspecified)
Second: CN(C)CCn1c(NC(=O)c2ccc(Cl)cc2)nc2ccccc21
The z-score of the first is lower: -0.244 for the first, 0.381 for the second.

Compared with `COCC(=O)/C=C1\Sc2ccccc2N1C`, `O=C(CSCc1ccccc1Br)NC1CC1` is lower in z-score: 1.82 for the first, -0.111 for the second.

Going from `CCOc1ccccc1NC(=O)C1CCCN(C(=O)Nc2ccccc2)C1` (stereo unspecified) to `O=C(Nc1ccccc1)NC1(C(=O)N2CCN(C(=O)c3ccco3)CC2)CCCCC1`, the z-score rises from -0.284 to -0.122.

First: CC(NC(=O)c1cccc(Cn2cc([N+](=O)[O-])cn2)c1)c1ccc(C(C)(C)C)cc1 (stereo unspecified)
Second: O=c1oc2ccccc2c(Nc2ccc3ncccc3c2)c1[N+](=O)[O-]
The z-score of the first is higher: 0.495 for the first, -0.178 for the second.

First: S=c1[nH]nc(COc2ccccc2)n1/N=C/C(Cl)=C/c1ccccc1
Second: O=C(Nc1cccc(F)c1)c1sc(Cl)nc1-c1ccccc1
The z-score of the first is higher: -0.26 for the first, -0.763 for the second.

Going from `Cn1ccnc1SCC(=O)Nc1ccc2nc(SCC(=O)NC3CC3)sc2c1` to `Cc1cccc(N2C(=O)CC(Sc3nc(C)c4c(n3)CCCC4)C2=O)c1` (stereo unspecified), the z-score rises from -0.00819 to 1.35.

Compared with `CCOC(=O)Cc1c(C)nc2c(-c3ccc(OC)cc3)c(C)nn2c1C`, `CCCCN(CCCC)CCn1cnc2c([nH]c3ccc(OC)cc32)c1=O` is higher in z-score: -0.695 for the first, 0.258 for the second.

Compared with `CC(=O)c1cccc(NC(=O)C(OC(=O)c2cccc(S(=O)(=O)N(C)c3ccccc3)c2)c2ccccc2)c1` (stereo unspecified), `CN(C)S(=O)(=O)c1ccc(S(=O)(=O)N2CCCC2)cc1` is lower in z-score: 0.518 for the first, -0.0148 for the second.

Compared with `O=c1[nH]c(=O)n(Cc2ccco2)c2c1C(C(F)(F)F)(C(F)(F)F)N=C(C1CCCCC1)N2`, `CC(C)c1ccc(CC(C)C2C3=C(CCCC3=O)OC3=C2C(=O)CCC3)cc1` (stereo unspecified) is lower in z-score: 0.667 for the first, -0.387 for the second.

`Cc1cc(/C=C(\C#N)C(=O)NC2CCCCCC2)c(C)[nH]1` showed a z-score of -0.0314.

In the case of `Cc1cc(C)c2nc(SCC(=O)NCCC3=CCCCC3)cc(C)c2c1`, the z-score is reported as active: 3.98.
`CN1CCN(S(=O)(=O)c2cccc(S(=O)(=O)c3cccc(S(=O)(=O)N4CCN(C)CC4)c3)c2)CC1` was tested, and the z-score was active: 14.

— PubChem BioAssay AID488969 (Vanderbilt High Throughput Screening Facility, 2010)
